{
  "source": "paper PMC5540273",
  "about": "(PLoS ONE, 2017)",
  "note": "This list holds what a sample rich in strong results left over.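 Also: KINOMEscan kinase panel screen.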",
  "data": [
    {"test_system": "PRKD2", "conditions": "concentration: 1 μM,replicates: in singlicate; n = 1", "units": {"%Inh": "%"}, "values": [
      {"smiles": "O=C1NC(=O)C(c2ccccc2Cl)=C1Nc1ccccc1", "note": "[SB-376715]", "%Inh": 13},
      {"smiles": "CS(=O)(=O)c1ccccc1-c1nc(-c2ccc(F)cc2)c(-c2ccncc2)[nH]1", "note": "[SB-213663]", "%Inh": 10},
      {"smiles": "O=C1NC(=O)C(c2ccc(Cl)cc2)=C1Nc1cccc(O)c1", "note": "[SB-333613]", "%Inh": 0}
    ]},
    {"test_system": "PRKD3", "conditions": "concentration: 1 μM,replicates: in singlicate; n = 1", "units": {"%Inh": "%"}, "values": [
      {"smiles": "O=C1NC(=O)C(c2ccc(Cl)cc2)=C1Nc1ccc(O)c(Cl)c1", "note": "[SB-405367]", "%Inh": 35},
      {"smiles": "O=C1NC(=O)C(c2ccc(Cl)cc2)=C1Nc1ccccc1", "note": "[SB-317661]", "%Inh": 0},
      {"smiles": "COc1cccc(C2=C(Nc3ccc(SC)cc3)C(=O)NC2=O)c1", "note": "[SB-331032]", "%Inh": 0},
      {"smiles": "Cc1ccc(C)c(Oc2nccc(-c3c(-c4ccc(F)cc4)ncn3C3CCNCC3)n2)c1.O=C(O)C(F)(F)F.O=C(O)C(F)(F)F.O=C(O)C(F)(F)F", "note": "[SB-284852]", "%Inh": 2},
      {"smiles": "O=C1NC(=O)C(c2ccccc2Cl)=C1Nc1cccc(C(=O)O)c1", "note": "[SB-390526]", "%Inh": 51},
      {"smiles": "O=C1NC(=O)C(c2ccccc2)=C1Nc1cc(Cl)c(O)c(Cl)c1", "note": "[SB-390530]", "%Inh": 16},
      {"smiles": "CSc1ccc(NC2=C(c3cccc(Cl)c3)C(=O)NC2=O)cc1", "note": "[SB-341528]", "%Inh": 0},
      {"smiles": "O=C1NC(=O)c2c1c(-c1ccccc1)cc1[nH]c3ccc(O)cc3c21", "%Inh": 0},
      {"smiles": "Cc1cc(C)cc(Oc2nccc(-c3c(-c4ccc(F)cc4)ncn3C3CCNCC3)n2)c1.O=C(O)C(F)(F)F.O=C(O)C(F)(F)F.O=C(O)C(F)(F)F", "note": "[SB-284851]", "%Inh": 0},
      {"smiles": "COc1ccc(C2=C(Nc3cccc(Cl)c3)C(=O)NC2=O)cc1", "note": "[SB-326892]", "%Inh": 0}
    ]}
  ]
}
